Results as given in PubChem BioAssay AID1030 (National Center for Advancing Translational Sciences (NCATS), 2008).
Screen size: about 220,000 compounds; about 16,000 (7.3%) were called active. Inconclusive results, whose numbers are uncertain, are shown with a selection of clear calls. Calls come from the whole dose curve; as a rule, active = well fitted inhibition curve with a large enough effect (not every such curve was filed as active); inconclusive = small, poorly fitted or top-dose-only effect, or another doubt; inactive = no such curve, though single readings can be large or run the other way. Potencies of inconclusive entries are left out as doubtful fits.

Molecular target: Aldehyde dehydrogenase 1A1 (Homo sapiens) (UniProt P00352)
Assay: qHTS Assay for Inhibitors of Aldehyde Dehydrogenase 1 (ALDH1A1);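 for activity, negative = inhibition: plate controls were no enzyme wells and a reference inhibitor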
Conditions: Purified ALDH1A1, NADH fluorescence, propionaldehyde substrate; series mostly up to 75.3 µM
Potency is the fitted concentration of half-maximal effect; tags give direction and shape of the fitted curve.

Sequence of UniProt P00352 (P00352 whole entry, looked up): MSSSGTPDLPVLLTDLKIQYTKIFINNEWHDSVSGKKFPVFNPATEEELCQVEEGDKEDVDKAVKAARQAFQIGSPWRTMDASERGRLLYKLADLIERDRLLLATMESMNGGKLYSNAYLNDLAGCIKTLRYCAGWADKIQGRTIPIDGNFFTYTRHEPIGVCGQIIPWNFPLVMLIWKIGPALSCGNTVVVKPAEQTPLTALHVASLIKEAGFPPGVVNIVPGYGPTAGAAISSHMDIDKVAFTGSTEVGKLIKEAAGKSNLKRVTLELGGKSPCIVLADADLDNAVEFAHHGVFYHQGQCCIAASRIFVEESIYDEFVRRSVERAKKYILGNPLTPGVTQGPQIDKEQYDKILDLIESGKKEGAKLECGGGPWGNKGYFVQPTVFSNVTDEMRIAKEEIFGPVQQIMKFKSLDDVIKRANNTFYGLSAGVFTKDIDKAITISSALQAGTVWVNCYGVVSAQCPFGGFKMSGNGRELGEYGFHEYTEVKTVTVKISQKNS

SMILES	Potency	activity, negative = inhibition
CCn1ncc(C2=NOC(C(=O)Nc3cccc(C(C)=O)c3)C2)c1C (stereo not given)	inactive	–
Cc1ccc(NC(=O)C(C)N2C(=O)c3ccccc3C2=O)cc1 (stereo not given)	inconclusive [inhibitor, single point]	–
N#C/C(=C\c1ccc(O)c(O)c1)C(=O)Nc1ccccc1	inconclusive [inhibitor, partial curve, poor fit]	–
COc1ccc(OC)c(/C=N/n2c(-c3n[nH]c4c3CCC4)n[nH]c2=S)c1	inactive	–
CCn1c(CCCCc2n[nH]c(=S)n2CC)n[nH]c1=S	inactive	–
CC1CC(C)CN(c2nc3c(c(=O)n(C)c(=O)n3C)n2C)C1 (stereo not given)	inactive	–
Cc1ccc(NC(=O)CNc2cccc(C)c2C)c(C)c1	active: 8.91 µM	–
O=C(Oc1ccc(Br)cc1C(=S)N1CCCC1)c1ccccc1F	active: 11.2 µM	–
CCN1CCc2c(OCC(=O)N3CCC(C)CC3)cccc2C1=O	inactive	–
COc1cc(C(=O)Sc2ccc(C)cc2)cc(OC)c1OC	inconclusive [inhibitor, single point]	–
O=C(O)/C=C(/C(=O)O)[C@]12CCN3CC4=CCO[C@@H]5CC(=O)N[C@@H]1C5[C@H]4C[C@H]32 (stereo not given in full)	–	inactive: -2.29% [at 13.5 µM]
CCOC(=O)c1c(C)[nH]c(=S)c(C#N)c1-c1ccc(Cl)cc1	inconclusive [inhibitor, partial curve]	–
Cc1nc2c(C(=O)NCc3ccco3)cnn2c(C)c1Cc1ccc(F)cc1Cl	inconclusive [inhibitor, single point]	–
O=C1CC(NCc2ccc3c(c2)OCO3)C(=O)N1Cc1ccc2c(c1)OCO2 (stereo not given)	inconclusive [inhibitor, partial curve]	–
CCN(CC)c1nc2ccccc2nc1C(C#N)C(=O)NCCCOC (stereo not given)	inconclusive [inhibitor, partial curve]	–
Cc1ccc(NC(=O)C2(NC(=O)c3ccccn3)CCCCC2)cc1Br	inactive	–
COc1ccc(CNC(=O)C2CCN(C(=O)[C@@H](CC(C)C)NC(=O)OC(C)(C)C)CC2)cc1	inconclusive [inhibitor, single point]	–
Cc1ccc(NC(C)c2cc(Cl)ccc2O)cc1 (stereo not given)	inconclusive [inhibitor, full curve]	–
O=C1c2ccccc2C(=O)C12OC2c1cccc2ccccc12 (stereo not given)	active: 1 µM	–
Cc1cccc(Cc2c(C)nc3c(C(=O)NCc4ccco4)cnn3c2C)c1	inconclusive [inhibitor, partial curve]	–
CC(C)(CO)CNC(=O)CC1C(=O)NCCN1CC(c1ccccc1)c1ccccc1 (stereo not given)	inconclusive [inhibitor, partial curve]	–
COc1ccc(OC)c(/C=C/C(=O)Nc2ccc(OC)nc2)c1	inconclusive [inhibitor, single point]	–
CS(=O)(=O)N(Cc1ccccc1)c1ccc(C(=O)NCCSCc2ccco2)cc1	inconclusive [inhibitor, single point]	–
CCc1ccc(Nc2nnc(SC3CCOC3=O)s2)cc1 (stereo not given)	inconclusive [inhibitor, single point]	–

SMILES	Potency	activity, negative = inhibition
CCSC1=C(C#N)C(c2ccc(F)cc2)CC(=O)N1 (stereo not given)	inconclusive [inhibitor, single point]	–
O=C(CCCCCn1c(=S)[nH]c2ccc(N3CCOCC3)cc2c1=O)NCc1ccccc1	inconclusive [inhibitor, single point]	–
CCOC(=O)C1CNc2cc(S(=O)(=O)CC)ccc2O1 (stereo not given)	inactive	–
CC1(c2ccc([N+](=O)[O-])c(CS(=O)(=O)c3ccccc3)c2)OCCO1	inconclusive [inhibitor, single point]	–
O=c1c2ccccc2nc(COc2ccccc2)n1/N=C/c1c[nH]c2ccccc12	inconclusive [inhibitor, single point]	–
CCOC(=O)C1=C(N)N(c2ccccc2Oc2ccccc2)C(=O)C1	inactive	–
Cc1cc([N+](=O)[O-])nn1CC(=O)NCc1nc2ccccc2[nH]1	inactive	–
CCc1nc(C)cn1S(=O)(=O)c1cc(C)c(OC)cc1C	inactive	–
CCOC(=O)c1cnc2c(-c3ccc(Cl)cc3)c(C)nn2c1N	inconclusive [inhibitor, partial curve]	–
C=CCN(CC=C)CCOc1ccccc1F	inconclusive [inhibitor, partial curve]	–
CCOC(=O)C1CCCN(c2cc(NCCCO)c([N+](=O)[O-])c3nonc23)C1 (stereo not given)	inconclusive [inhibitor, partial curve]	–
O=C(CN(Cc1ccccc1)C(=O)c1ccc2c(c1)OCCO2)NCc1ccc2c(c1)OCO2	active: 0.631 µM	–
COC(=O)c1nn(-c2ccccc2)c(Sc2ccc(Cl)cc2)c1/C=N/O	inconclusive [inhibitor, single point]	–
Cc1cc(C(=O)COc2ccccc2[N+](=O)[O-])c(C)n1C1CC1	active: 31.6 µM	–
O=C(Nc1ccc(S(=O)(=O)Nc2ncccn2)cc1)C1=NN(c2ccccc2)C(=O)CC1	inactive	–
C=CCn1c(SCC(=O)NCCOC)nc2scc(-c3ccco3)c2c1=O	active: 7.94 µM	–
Cc1ccc(-c2nc3ccccc3s2)cc1NC(=O)c1cc(-n2cnnc2)ccc1Cl	inconclusive [inhibitor, single point]	–
CCOc1cccc(-c2nnc3sc(C4CCCCC4)nn23)c1	active: 25.1 µM	–
CCOC(=O)c1c(C)n(C)c2ccc(OC)c(NS(=O)(=O)CC)c12	inconclusive [inhibitor, single point]	–
CN1Cc2c(C(=O)OC(C)(C)C)ncn2-c2ccsc2C1=O	active: 11.2 µM	–
CCOC(=O)c1sc(Nc2nc3c(OC)cccc3s2)cc1C	inconclusive [inhibitor, partial curve]	–
COc1ccc(CN(CCC(c2ccc(F)cc2)C2CCOC(C)(C)C2)C(=O)c2ccco2)cc1 (stereo not given)	inconclusive [inhibitor, single point]	–
C#Cc1ccc([C@@H]2C=C(C(=O)N3CCN(Cc4ccc5c(c4)OCO5)CC3)O[C@H](OCCCCO)C2)cc1	inactive	–
CN(Cc1ccccc1)c1oc(-c2ccco2)nc1C#N	inconclusive [inhibitor, partial curve]	–

SMILES	Potency	activity, negative = inhibition
Cc1cc2nc(C3CCN(Cc4nnnn4Cc4ccccc4)CC3)[nH]c2cc1C	inconclusive [inhibitor, partial curve]	–
CN(C(=O)C1CCCO1)c1nnc(-c2cnccn2)s1 (stereo not given)	inactive	–
Cc1cc(N2CCN(C(=O)c3ccco3)CC2)n2ncc(-c3ccccc3)c2n1	inconclusive [inhibitor, single point]	–
COc1ccc(-c2cc(C(F)(F)F)nc(S(=O)(=O)CCC(=O)N3CCOCC3)n2)cc1	inconclusive [inhibitor, single point]	–
COc1ccc2[nH]c3c(NCc4ccco4)ncnc3c2c1	inconclusive [inhibitor, single point]	–
CC(C)N1CSC(=S)N(Cc2ccccc2)C1	inconclusive [inhibitor, single point]	–
Cn1c(C(=O)N2CCC(C(=O)N3CCN(Cc4ccc5c(c4)OCO5)CC3)CC2)cc2sccc21	inconclusive [inhibitor, single point]	–
Cc1[nH]c(-c2ccc3c(c2)OCO3)nc1C(=O)O	inconclusive [inhibitor, partial curve]	–
COc1cc(-c2nc3ccccn3c2/N=C/c2cc(OC)c(O)cc2Cl)ccc1O	inconclusive [inhibitor, partial curve]	–
Cc1cccc(C(=O)Nc2ccccc2SCC(=O)Nc2ccc(C)c(Cl)c2)c1	inconclusive [inhibitor, single point]	–
CN1C(=O)/C(=C/c2ccc(C(=O)NC3CCCC3)cc2)Oc2ccccc21	inconclusive [inhibitor, partial curve]	–
CN1Cc2sc(N)c(C#N)c2CC1(C)C	inconclusive [inhibitor, partial curve, poor fit]	–
O=C(CCn1c(SCC(=O)c2ccccc2)nc2ccccc2c1=O)NCc1ccc(F)cc1	inactive	–
COc1ccc(CN2CCCCCC2)c(C)c1C	inconclusive [inhibitor, partial curve]	–
Cc1ccc(NC(=O)c2sc3nc(CCl)[nH]c(=O)c3c2C)c(C)c1	inconclusive [inhibitor, single point]	–
CN1C(=O)NC(c2ccccc2)(C(F)(F)F)S/C1=C(/C#N)c1nnc(N2CCOCC2)n1-c1ccccc1 (stereo not given)	inactive	–
Oc1ccc(-c2csc(-c3ccccc3)n2)cc1O	inconclusive [inhibitor, single point]	–
CCn1c(SCC(=O)Nc2nccc(C)n2)nc2ccccc21	inconclusive [inhibitor, single point]	–
CCCS(=O)(=O)NCCc1cc2ccc(C)cc2[nH]c1=O	inconclusive [inhibitor, single point]	–
COc1ccc(OC)c(S(=O)(=O)NCCc2ccccc2)c1	inconclusive [inhibitor, partial curve]	–
CCc1ccc2oc(-c3cc(N)ccc3Cl)nc2c1	inconclusive [inhibitor, single point]	–
CN=C1c2cc3cc(OC)ccc3n2CCN1Cc1ccccc1	inconclusive [inhibitor, partial curve]	–
